The source gives no read counts; variants with many changes may rest on few reads.
B1: LINE1-full (parent)
chain: UACGUAGGUGGUUUUCCCCUGAUAGUGCUAAGGGGGCCUGGAAGUUUGGACUGGGCAGAGCUCAACACAGCGUGGCAAAGUGGCUGUGGCUAGACUGCCUCUCUGGAUUCCUCGUCACUCAGCAGGGCAUCUCUGAGAGAAAUGCC

Variants of: B1
Test: self-cleavage, relative activity (ratio to wild type); higher = more cleavage; in vitro, sequencing; the parent is a self-cleaving ribozyme

Row | Variant | self-cleavage
1 | UACGUAGGUGGUUUACCCCUGAUAGUGCUAAGGGGGCCUGGAAGUUUGGACCGGGCAGGGCUCAACACAGUGUGGCAAAGUGGCUGUGGCUAGACUGCCUCUCUGGAUUCCUCGUCACUCAGCAGGGCAUCUCUGAGAGAAAUGCC [U15A U52C A59G C71U] | 0.03
2 | UACGUAGGUGGUUUUCCCCUGAUAGUGCUAAGGGGGCCUGGAAGUUUGGACAGGGCAGAGCUCAACUCAGCGUGGCAAAGUGGCUGUGGCUAGACUGCCACUCUGGAUUCCUCGUCACUCAGCAGGGCAUCUCUGAGAGAAAUGCC [U52A A67U U100A] | 0.08
3 | UGCGUAGGUGGUUUUCCCCUGAUAGUGCUAAGGGGGCCUGGAAGUUUGGACUGGGCAGAGCUCGACACAGCGUGGCAAAGUGGCUGUGGCUAGACUGCCUCUCUGGAUUCCUCGUCACUCAGCAGGGCAUCUCCGAGAGAAAUGCC [A2G A64G U134C] | 0.88
4 | UACGUAGGUGGUUUUCCCCUGAUAGUGCUAAGGGGGCCUGGAAGUUUGGACUGGGCAGAGCACAACACAGCGCGGCAAAGUGGCUGUGGCUAGACUGCCCCUCUGGAUUCCUUGUCACUCAGCAGGGCAUCUCUGAGAGAAAUGCC [U62A U73C U100C C113U] | 0.04
5 | UACGUAGGUGGUUUUCCCCUGAUAGUGCUAAGGGGGCCUGGAAGUUUGGACUGGGCAGAGCACAACACAGCGUGGCAAAGUGGCUGUGGCUAGACAGCCUCUCUGGAUUCCUCGUCACUCAGCAGGGCAACUCUGAGAGAAAUGCC [U62A U96A U130A] | 0.04
6 | UACGUAGGUGGUCUUCCCCUGAUAGCGCUAAGGGGGCCUGGAAGUUUGGACUGGGCAGAGCUCAACACAGCGUGGCAAAGUGGCUGUGGCUAGACUGCCUCUCUGGAUUCCUCAUCACUCAGCAGGGCAUCUCUGUGAGAAAUGCC [U13C U26C G114A A136U] | 1.46
7 | UACGUAGGUGGUUUUCCCUUGAUAGUGCUAAGGGGGCCGGGAAGUUUGGACUGGGCAGAGCUCAACACAGCGAGGCAAAGUGGCUGUGGCUAGACUGCCUCCCUGGAUUCCUCGUCACUCAGCAGGGCAUCUCUGAGAGAAAUGCC [C19U U39G U73A U102C] | 1.88
8 | UACGUUGGUGGUUUCCCCCUGAUAGUGCUAAGGGGGCCUGGAAGUUUGGACUGGGCAGAGCUCAACACAGCGUGGCAAAGUGGCUGUCGCUAGACUGCCUCUCCGGAUUCCUCGUCACUCAGCAGGGCAUCUCUGAGAGAAAUGCC [A6U U15C G88C U104C] | 0.28
9 | UGCGUAGGUGGUUUUCCCCUGAUAGUGCUUAGGGGGCCUGGAAGUUUGGACUGGACAGAGCUCAACACAGCGUGGCAAAGUGGCUGUGGCUAGACUGCCUCUCUGGAUUCCUCGUCACUCAGCGGGGCAUCCCUGAGAGAAAUGCC [A2G A30U G55A A124G U132C] | 0.15
10 | UACGUAGGAGGUCUUCCCCUGAUAGUGCUAAGGGGGCCUGGAGGUUUGGACUGGGCAGAGCUCAACACAGCGUGGCAAAGAGGCUGUGGCUAGACUGCCUCUCUGGAUUCCUCGUCACUCAGCAGGGCAACUCUGGGAGAAUUGCC [U9A U13C A43G U81A U130A A136G A142U] | 1.61
11 | UACGUAGGUGGUUUUCCCCUGAUAGUGCUAAGGGAGCCUGGAAGUUUGGACUGGGCAGAGCUCAACACAGCGUGGUAAAGUGGCUGUGGCUAGACUGCCUCUCUGGAUUCCUCGUCAAUCAGCAGGGCAUCUCUGAGAGAAAUGCC [G35A C76U C118A] | 2.44
12 | UACGUAGGUGGUUUUCCCCUGAUAGUGCUAAGGGAGCCUGGAAGUUUGGACUGGGCAGAGCUCAACACAGCGUGGCAAAGUGGCUGUGGCUAGACAGCCUCUCUGGAUUCCUCGUCACUCAGCAGGGCAUCUCUGAGAGAGAUGCC [G35A U96A A141G] | 0.01
13 | UACGUAGGCGGUUCUCCCCUGAUAGUGCUAAGGGGGCCUGGAAGUUUGGACUGGGUAGAGCUCAACACAGCGUGGCAAAGUGGCUGUGGCUAGACUGCCUCUCUGGAUUCCUCGUCACUCAGCAGGGCAUCUCUGAGAGAAAUGCC [U9C U14C C56U] | 0.2
14 | UACGUAGGUGGUUUUCCCCUGAUAGCGCUAAGGGGGCCUGGAAGUUUGGACUGGGCAGAGCUCAACACAGCGUGGCAAAGUGGCUGUGGCUAGACUGCCUCUCUGGGUUCAUCGUCACUCAGCAGGGCAUCUCUGAGAGAAAUGCC [U26C A107G C111A] | 1.08
15 | UACGUAGGUGGUUUUCCCCUGACAGUGCUAAGGGGGCCUGGAAGUUUGGACUGGGCAGAGCUCUACACAGCGUGGCAAAGUGGCUGUGGCUAGGCUGCCUCUCUGGAUUCCUCGUCACUCAGCAGGGCAUCUCUGAGAGAAAUGCC [U23C A64U A94G] | 0
16 | UACGUAGGUGGUUUUCCCCUGAUAGCGCUAAGGGGGCCUGGUGGUUUGGACUGGGCAGAGCUCAACACAGAGUGGCUAAGUGGCUGUGGCUAGACUGCCUCUCUGGAUUCCCCGUCACUCAGCAGGGCUUCCCUGAGAGAAAUGCC [U26C A42U A43G C71A A77U U112C A129U U132C] | 0.11
17 | UACGUAGGUGGCUUACCCCUGAUAGUGCUAAGGGGGCCUGGAAGUUUGGACUGGGCAGAGCUCGACACAGCGUGGCAAAGUGGCUGUGGCUAGACUGCCUCUCUGGAUUCCUCGUCACUCAGCAGGGCAUCUCUGAGAGAAAUGCC [U12C U15A A64G] | 0.44
18 | UACGUAGGUGGUUUUCCACUGAUAGUGCUAAGGGGGCCUGGAGGUUUGGACUGGGCCGAGCUCAACACAGCGUGGCAAAGUGGCUGUGGCUAGACUGCCUCUCUGGAUUCCUCGUCACUCAGCAGGGCAUCUCUGGGAGAAAUGCC [C18A A43G A57C A136G] | 0
19 | UACGUAGGUGGUUUUCCCCUGAUAGUGCUAAGGGGGCCUGGAAGUUUGGACUGGGCGGAGUUCAACACAGCGUGGCAAAGUGGCUGUGGCUAGACUGCCUCUCUGGAUUCCUCGUCUCUCAGCAGGGCAUCUCUGAGAGAAAUGCC [A57G C61U A117U] | 0.07
20 | UACGUAGGUGGUUUUCCCCUGAUAGUGCUAAGGGGGCCUGGAAGUUUGGACUGGGCAGAGCUCAACACAGCGUGGCAAAGUGGCCGUGGCUAGACUGCUUCUCUGGAUUCCUCGUCACUCAGCAGGGCAUCUCUGAGAGAAACGCC [U85C C99U U143C] | 0.06

From the RNAGym collection of RNA variant scans (doi:10.7554/elife.90254)
